# From PubChem BioAssay AID1346428 (National Center for Advancing Translational Sciences (NCATS), 2018)
# Out of some 48,000 compounds screened, about 1,200 (2.5%) were called active. Inconclusive results (about 2%) are left out.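 How the source made its calls: active means activation of at least 60% and not above a set upper limit (about 1 call in 100 departs from these limits); inconclusive means activation of 40% to 60%, or above that upper limit; inactive means activation under 40%.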 The list shows a part of the results.
# Molecular target: Probable G-protein coupled receptor 32 (Homo sapiens) (UniProt O75388)
# Chain of UniProt O75388 (O75388 whole entry, looked up): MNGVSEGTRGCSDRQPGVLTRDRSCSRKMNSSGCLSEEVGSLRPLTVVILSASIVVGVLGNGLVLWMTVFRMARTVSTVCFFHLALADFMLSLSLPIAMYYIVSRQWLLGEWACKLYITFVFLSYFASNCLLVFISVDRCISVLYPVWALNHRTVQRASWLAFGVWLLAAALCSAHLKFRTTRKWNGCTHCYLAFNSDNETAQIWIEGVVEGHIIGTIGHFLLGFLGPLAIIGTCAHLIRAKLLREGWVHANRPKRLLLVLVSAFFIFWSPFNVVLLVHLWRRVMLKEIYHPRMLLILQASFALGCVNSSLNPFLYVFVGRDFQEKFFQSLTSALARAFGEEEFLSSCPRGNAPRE
# Experiment: qHTS for Agonists of Human Resolvin D1 Receptor DRV1; further: 0% is about no effect
# Conditions: CHO-K1 GPR32 beta-arrestin PathHunter luminescence, 90 min; at 76.9 µM; hits give high values; zero percent set by DMSO-only wells
# Procedure, shortened: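 Cells are plated overnight, treated with compounds in DMSO for 90 minutes at 37 °C, and developed with PathHunter detection reagent for 1 hour before luminescence is read; signal reflects beta-arrestin binding to GPR32 in engineered CHO-K1 cells.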
row,SMILES,activation
1,CCOc1ccc(CNC(=O)Nc2ccc3c(c2)N(C)C(=O)c2ccccc2S3)cc1,inactive: -20.7%
2,COc1ccc(NC(=O)C2CCCN(c3cnccn3)C2)c(OC)c1 (centres undefined),inactive: -19.8%
3,CCC(Cc1ccccc1)NC(=O)CCS(=O)(=O)c1cc2c(cc1Cl)NC(=O)CO2 (centres undefined),inactive: -1.61%
4,CCC(C)n1c(=N)c(C(=O)NC2CCCC2)cc2c(=O)n3ccccc3nc21 (centres undefined),inactive: 0.993%
5,Cc1ccc(NC(=O)CSc2cn(CC(=O)N3CCOCC3)c3ccccc23)cc1Cl,inactive: 24.9%
6,Cc1ccc(NC(=O)CN2C(=O)CSc3ccc(S(=O)(=O)N(C)C)cc32)c(C)c1,inactive: 5.24%
7,COc1ccc2sc(N(Cc3cccnc3)C(=O)c3cccs3)nc2c1,inactive: 0.733%
8,N=C(N)c1ccc(OCCCCCOc2ccc(C(=N)N)cc2)cc1,inactive: -13.7%
9,Cn1c(=O)c2nc3ccc(NC(=O)C(F)(F)F)cc3nc2n(C)c1=O,inactive: -14.3%
10,Cc1ccc2c(c1)C(c1ccccc1)N(C(=O)c1ccc(S(=O)(=O)N3CCCC3)cc1)CC(=O)N2 (centres undefined),inactive: -13.1%
11,Cc1ccc(-n2ncc3c(NC4CCCC4)ncnc32)cc1,active: 112%
12,CCOC(=O)/C(C#N)=C/c1ccc(-c2ccccc2)o1,inactive: -0.126%
13,O=S(=O)(c1ccccc1)c1nnn2c1nc(N1CCN(c3ccccc3)CC1)c1cc(Cl)ccc12,inactive: 9.1%
14,COc1ccc2sc(N(Cc3cccnc3)C(=O)C3COc4ccccc4O3)nc2c1 (centres undefined),inactive: -27.7%
15,CCCn1cc(S(=O)(=O)c2ccccc2)c(=O)c2cc(F)c(N3CCCCCC3)cc21,inactive: -13.1%
16,O=C(Cn1cc2c(n1)CCCC2)Nc1cc(C(F)(F)F)ccc1Cl,inactive: -1.41%
17,Cc1cc(C)cc(NC(=O)c2sc3nc4n(c(=O)c3c2C)N=C(c2ccc(F)cc2)CS4)c1,inactive: -9.61%
18,Cc1nc(SCc2ccccc2Cl)c(C#N)c(C)c1C,inactive: -2.81%
19,CC1(C)Oc2ccc(C#N)cc2[C@@H](N2CCCC2=O)[C@@H]1O,inactive: 7.81%
20,CSc1ccc(CCNC(=O)c2ccc3c(c2)nc2n3CCOC2)cc1,inactive: -8.85%
21,CCOC(=O)c1c(NC(=O)c2nc(SC)ncc2Cl)sc(C)c1C,inactive: -12.8%
22,Cc1cc(NC(=O)CN2C(=O)CSc3ccc(S(=O)(=O)N(C)C)cc32)ccc1Br,inactive: -29.9%
23,COc1ccccc1CNC(=O)c1cc2c(=O)n(Cc3cccs3)ccc2nc1C,inactive: -15.8%
24,COc1ccc(Cl)cc1NC(=O)CSc1cn(CC(=O)N2CCCC2)c2ccccc12,inactive: -11%
